# The full ranking holds about 33,000 sequences; the median of “E-score (-0.5 to 0.5)” is about -0.036, and the highest 2% start at about 0.37. This is one part of the list.
# Molecular target: T1, Yer064c (UniProt P40041)
# T1 sequence: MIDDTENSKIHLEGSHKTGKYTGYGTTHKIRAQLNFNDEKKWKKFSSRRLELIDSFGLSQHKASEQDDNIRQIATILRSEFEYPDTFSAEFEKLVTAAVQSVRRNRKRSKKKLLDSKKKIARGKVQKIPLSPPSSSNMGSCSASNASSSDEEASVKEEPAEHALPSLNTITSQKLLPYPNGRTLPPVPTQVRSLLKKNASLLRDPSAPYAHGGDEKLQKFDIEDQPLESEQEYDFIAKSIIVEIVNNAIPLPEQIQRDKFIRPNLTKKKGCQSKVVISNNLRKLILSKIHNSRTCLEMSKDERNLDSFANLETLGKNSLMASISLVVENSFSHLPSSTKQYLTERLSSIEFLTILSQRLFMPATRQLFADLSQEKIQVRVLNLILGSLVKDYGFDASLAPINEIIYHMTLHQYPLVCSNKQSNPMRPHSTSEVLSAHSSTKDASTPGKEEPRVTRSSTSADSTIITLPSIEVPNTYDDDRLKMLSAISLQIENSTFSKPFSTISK
# Assay: PBM E-score (8-mer binding enrichment) (E-score (-0.5 to 0.5)); higher = stronger / more preferred TF binding; most listed sequences are background and not binding sites
# Details: protein concentration: 200 nM; construct: GST-full length
# Outline: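 The E-score, a modified Wilcoxon-Mann-Whitney statistic, was computed by the Universal PBM Analysis Suite for every ungapped eight-base word pooled with its reverse complement. Scans behind it were normalised with masliner after bound GST-tagged yeast transcription factors were detected with fluorescent anti-GST. The proteins, at about 100-200 nM, had been applied to universal all-10-mer Agilent arrays made double-stranded by primer extension.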
row,Sequence,PBM E-score
1,CTGCACCA,-0.0637
2,CCAGGCAA,-0.212
3,CCTAGTAC,-0.0424
4,AGCGAGAC,0.0409
5,CTTTTGTA,0.258
6,ACGACGGG,-0.322
7,CTCATGCC,0.109
8,CAGTAACC,0.00134
9,ATTCCCCA,-0.21
10,AACTTTGT,0.0336
11,CTTCTGGC,0.00174
12,GGTTATCA,-0.00079
13,CACGGGCA,-0.24
14,ATCACTTC,0.175
15,AGACCCTC,-0.118
16,CCCTTAAC,-0.172
17,GGGGGACA,-0.0893
18,CGTGGAAG,-0.0442
19,CGCCTTAA,-0.0413
20,GGACCTAA,-0.104
21,CATTCACG,0.0972
22,GGTGTGGA,-0.0929
23,AGAGGTCA,-0.0895
24,CACGGGGC,-0.169
25,CGCCGTGA,0.113

row,Sequence,PBM E-score
1,GGGTAACA,-0.0151
2,CACGCGTC,0.175
3,ATATAATA,0.045
4,CGCCATGC,-0.25
5,CAGAATGA,0.251
6,GAAATGAA,0.122
7,ATCCTTGC,-0.0894
8,AACCATTG,0.123
9,AATTACCC,-0.0514
10,CCAAAGCA,0.0942
11,CCAGAACC,-0.1
12,CCCTAGCA,-0.321
13,GCTCTGCC,-0.248
14,AGCTTGGG,-0.129
15,GGTTTGCA,0.00826
16,GTGTAGAA,-0.039
17,CTATAGAC,-0.121
18,CGACGAAG,0.0591
19,ACTACCTA,0.156
20,GGATTCCC,-0.34
21,CATTGAGA,0.118
22,GGGTTAAC,0.126
23,CCAGGTCA,-0.26
24,CAGCGTCA,-0.0752
25,AGCAAACA,-0.145

row,Sequence,PBM E-score
1,TGGCTCAA,0.332
2,AATCTGAT,0.249
3,CCTCTTAC,-0.231
4,CGTTCAAA,-0.1
5,AGTTCCTG,-0.163
6,CATTGCGA,0.0115
7,CGCTGTCA,-0.159
8,ACCAGTTA,0.0293
9,AGTGTCTC,0.045
10,CCGTTTAA,-0.192
11,AATCCTCG,-0.0311
12,ACAGACTC,0.269
13,GATGTTGC,-0.298
14,CACCCACG,0.0295
15,ATATGGCA,-0.176
16,GCTGCCAA,-0.251
17,CACACAGG,0.00713
18,AAATCGTA,-0.0283
19,GTGTGTGA,0.168
20,GAATGGTA,0.0652
21,ATGGCAAC,0.0267
22,GTTCTTCA,0.125
23,CACTGCAC,0.0241
24,AGTTCTTG,0.00647
25,CTTTTTAC,0.0105

row,Sequence,PBM E-score
1,CGGAATAA,-0.132
2,ATGGTAAA,0.0695
3,AAGATCGT,-0.0713
4,CAGGGTCG,-0.266
5,AGGTTCCG,-0.234
6,AAAGATCC,-0.186
7,CTCTTTTA,0.215
8,AGCCATAC,0.26
9,TGCACAAA,-0.0203
10,CCCGGATC,-0.134
11,ACTAGGGC,0.0527
12,AAGGGGGG,-0.444
13,ATCCAAAG,0.161
14,CGCCGCCG,-0.0397
15,CACAGCGC,-0.0415
16,GTCCTAAC,0.178
17,CAATCGTA,0.0189
18,GGAGGGCA,-0.304
19,CGGTCTAG,0.0113
20,CAATTTCA,-0.0656
21,AAAATACG,-0.00935
22,GACTCTAC,0.38
23,ATTAACCG,0.178
24,CAGTACTG,0.0329
25,ATGGATGC,-0.097

row,Sequence,PBM E-score
1,TACTGGAA,-0.0205
2,AAGTTAGG,-0.0353
3,ACTCCATC,0.204
4,AGTGTCAG,-0.0432
5,CTTAGGGA,-0.0598
6,ACTCGTCA,0.155
7,ACTTCCCC,-0.0461
8,TTCGACAA,0.0693
9,ACGTGCAT,-0.139
10,CTAGCACA,-0.147
11,CCCCAACG,0.0539
12,CGAGTAAC,0.101
13,GTGTATCA,0.223
14,GCTGCGGA,-0.0455
15,GGACCCTA,-0.355
16,ACAACAAG,0.0678
17,CAGCACAC,-0.0998
18,AGGTCTAA,0.0183
19,ACATGCCC,-0.132
20,ACAATCGC,-0.0362
21,CCCGTAGA,-0.145
22,ACCACGGT,-0.155
23,CAAGTCCG,-0.0802
24,AAATATGT,0.0908
25,AAAATACT,0.208

row,Sequence,PBM E-score
1,ATATTCAG,0.126
2,CCCACCAG,-0.121
3,ACGGGACG,-0.252
4,AATCAGGG,0.271
5,GTCAGCGA,0.166
6,ATGAATTG,-0.0367
7,GCACCCCA,-0.26
8,TGTGAACA,-0.185
9,TACGTAAA,0.0313
10,CATCGTAC,0.163
11,GTCGACAC,0.0982
12,CGGGTCAA,0.0197
13,GTGTTGGA,-0.127
14,CACCTTAA,-0.008
15,TGGTCAAA,-0.0461
16,CCAGCCCC,-0.235
17,AATTATGG,-0.0787
18,ATCCCTAC,-0.0319
19,GAGAGGGA,-0.103
20,CAATAGAC,0.05
21,AGGCCAAT,-0.198
22,CCGTTAGG,-0.239
23,AGCTAACA,-0.105
24,ACATCCCA,-0.263
25,GACGCCCA,-0.134

row,Sequence,PBM E-score
1,GGCTTTGA,-0.0627
2,CGACCCTC,-0.0653
3,AAGGCGTG,-0.162
4,AACTAAGG,0.116
5,CTAATAAA,0.113
6,GAGAAGCA,-0.11
7,AGGCGAAC,-0.107
8,CAAGCTAG,-0.24
9,CGCGACGA,0.0243
10,AGAGTAGA,-0.00682
11,AGGTCGCC,-0.0538
12,CAAACACA,0.106
13,CACGTTCC,-0.142
14,ATGAAGCG,-0.197
15,CATCTAGC,-0.192
16,ACCGGTTC,-0.336
17,CTTTATTA,0.097
18,CGACGACG,-0.12
19,CATCCGCA,-0.0245
20,TGGGTCAA,0.0506
21,AGGCAAGA,-0.108
22,AAACTTAT,0.192

# Source: the supplement of paper PMC3334620
